In article PMC9574860, “Chemical Toolkit for PARK7: Potent, Selective, and High-Throughput” (Journal of Medicinal Chemistry, 2022):
Screen size: about 7,900 compounds; about 400 (5.1%) showed an effect of 50% or more. The list shows a part of the results.

Biological target: Parkinson's disease protein 7 (PARK7/DJ1) (human, UniProt Q99497)
Assay: primary screen, percent inhibition; read as competition with a fluorescent probe by fluorescence polarization; higher = more effect of the substance
Conditions: 100 µM
Method in brief: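 Covalent fragments at 100 μM final were incubated 2 h with 0.2 μM PARK7, then 20 nM probe JYQ-107 added for a further 2 h. Fluorescence polarization read at 480/520 nm; relative FP loss versus reference controls gave remaining enzyme activity.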

Parkinson's disease protein 7 (PARK7/DJ1), sequence (Q99497 whole entry, looked up): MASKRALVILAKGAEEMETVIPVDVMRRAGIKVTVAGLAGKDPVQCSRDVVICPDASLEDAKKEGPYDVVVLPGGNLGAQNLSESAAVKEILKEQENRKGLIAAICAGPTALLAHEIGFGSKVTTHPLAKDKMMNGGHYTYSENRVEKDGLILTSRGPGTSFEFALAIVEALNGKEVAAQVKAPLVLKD

Row | Structure (SMILES) | Inhibition % [%]
1 | C=CC(=O)N1CCN(C(=O)OCC(C)C)CC1 | 11.5
2 | Cc1ccc(CNC(=O)C(C#N)=CN(C)C)cc1 | 4.58
3 | CCOC(=O)C1CCC(=CB2OC(C)(C)C(C)(C)O2)CC1 (stereo not drawn) | 10.3
4 | O=C1CCC(Cc2cccc(O)c2)O1 (stereo not drawn) | 7.14
5 | Cc1noc(C)c1C(=O)CCl | 13.5
6 | CC(C)CC(CO)NC(=O)c1cccnc1S (stereo not drawn) | 7.34
7 | Cc1cc(C)c(C#N)c(SC2CCOC2=O)n1 (stereo not drawn) | 16
8 | C=CCC1N(C(=O)C=C)CCCC1(C)C (stereo not drawn) | 6.79
9 | Cc1ccccc1N1CCN(C(=O)n2ccnc2)CC1 | 8.38
10 | O=C1CCC(=O)N1Cc1cc(-c2ccccc2)on1 | 0.792
11 | C=CC(=O)NC1CC(=O)N2CCCCC12 (stereo not drawn) | 9.46
12 | Cn1nccc1C=CC(=O)N1CCCCC1C(=O)O (stereo not drawn) | 6.67
13 | CC(C)C1NC(=O)C1(C)C (stereo not drawn) | 0.897
14 | Cc1cccc(C)c1OCC1CO1 (stereo not drawn) | 13.6
15 | C=CC(=O)NC1CC(=O)N(c2cccc(OC)c2)C1 (stereo not drawn) | 3.42
16 | O=C(CN1CCSC1=O)Nc1nc2ccccc2s1 | 1.64
17 | CC(C)(C)c1cc(NC(=O)CCl)on1 | 9.31
18 | CC1CC(Cl)CC(C)O1 (stereo not drawn) | 3.99
19 | CCCC(=O)NC1CCCN(c2ccc(C#N)nc2)C1 (stereo not drawn) | 5.26
20 | CN(C)c1cccc2c(B(O)O)cccc12 | 24.8
21 | C=CC(=O)N(CC)Cc1cc(Br)ccc1O | 8.51

Row | Structure (SMILES) | Inhibition % [%]
22 | Cc1cccc(Oc2ccc(NC(=O)CCl)cc2)c1 | 81.6
23 | Cc1ccc(CC(=O)N2CCCCC2C2OCCO2)cc1 (stereo not drawn) | -3.9
24 | COc1cc(C)ccc1S(=O)(=O)n1cccn1 | 7.7
25 | COC(C)c1cccc(NC(=O)c2cccnc2S)c1 (stereo not drawn) | 4.97
26 | CC(N)C1CCCN(C(=O)C=Cc2cccnc2)C1 (stereo not drawn) | 7.72
27 | C=CC(=O)Nc1ccc(N(C)C(C)C)c(F)c1 | 14.9
28 | C=CC(=O)NCc1ccc(=O)[nH]n1 | 7.52
29 | O=C(CCl)Nc1cc2c(cc1Cl)OCCO2 | 22.8
30 | C=CC(=O)N1CCc2cccc(Cl)c2C1 | 2.19
31 | Cc1nccn1S(=O)(=O)c1ccc(Cl)cc1Cl | 4.34
32 | N#CC(C(=O)CCl)c1nnc2n1CCCCC2 (stereo not drawn) | 11.9
33 | Cc1ccc(C)c(NC(=O)Cn2cnc(C#N)n2)c1 | 2.34
34 | C=CC(=O)N1CC(=O)NC(C)C1 (stereo not drawn) | 5.57
35 | C=CC(=O)N1CCC(C)(OCC)CC1 | 8.19
36 | Cc1ccc(C)c(NC(=O)CCl)c1 | 8.12
37 | C=CC(=O)NCc1ccc(C(=O)O)cc1 | 5.08
38 | Cc1nc(CCCl)no1 | 2.21
39 | Cl.ClCCn1cccn1 | 10.8
40 | O=C(CCl)NCC(=O)Nc1ccc(F)c(F)c1 | 8
41 | Cn1cc(C=CC(=O)N2CCOCC2)cn1 | 12.5
42 | CCNC(=O)c1cccc(NC(=O)CCl)c1 | 12.3

Row | Structure (SMILES) | Inhibition % [%]
43 | C=CC(=O)NC1CCC2(CC1)COC2 | 12.3
44 | Cl.O=S(=O)(F)CCC1CCCCN1 (stereo not drawn) | 1.97
45 | C=CC(=O)N1CCCC1c1nc2ccccc2n1C (stereo not drawn) | 4.28
46 | N#CC(=Cc1csc(-c2ccsc2)n1)C(=O)NC1CC1 | 5.55
47 | COc1ccc(N2CCN(C(=O)CCCl)CC2)cc1 | 18.5
48 | C=CC(=O)N1CCN(c2cccc(C)c2)CC1 | 11
49 | Cn1ncc(C(=O)Nc2cccc(S(=O)(=O)F)c2)c1C#N | 4.68
50 | O=C1CN(C(=O)CCl)C2(CCCCC2)C(=O)N1 | 38.3
51 | COc1ncc(B2OC(C)(C)C(C)(C)O2)cc1C(F)(F)F | 1.49
52 | Cc1nc(C=CC(=O)N2CCCC[C@@H]2C(=O)O)cs1 | 6.39
53 | N#Cc1cnc(OCC(F)(F)F)cn1 | 4.9
54 | Cc1cc(C)n(S(=O)(=O)c2ccc(Cl)c(C)c2)n1 | 7.52
55 | N[C@@H]1CCN(C(=O)C=Cc2cc3ccccc3o2)C1 | 18.2
56 | CCN(CC)CCn1c(S)nc2ccccc2c1=O | 4.52
57 | C=CC(=O)N1CCOc2c1c(C)nn2C | 23.5
58 | CCN(C(=O)CCl)C1CCCCC1 | 9.37
59 | O=C(Nc1ccc(F)cc1)N1CCC(C2OCCO2)CC1 | 9.17
60 | COC(Cc1cccc(Cl)c1)OC | 28.9
61 | CCOC(=O)c1sc(NC(=O)CCl)c(C#N)c1C | 3.35
62 | CC1(C)[C@@H](Nc2cnc(C#N)cn2)[C@@H]1c1ccccc1 (racemic) | 10.2
63 | COCCOc1cccc(B(O)O)c1 | 4.68
